Source: the supplement of paper PMC7826260
This is one part of the list. Cleavage of a single-stranded DNA pool by Rep nickase domains was read by sequencing for 1 h at 37 °C with 3 µM enzyme; only the middle of the 90-letter strands is printed. Uncut reads are compared with the no-enzyme pool on a log2 scale; the lower, the more was cut; hits are not called. The scaling is to total reads; uncut strands gain when others are lost, and binding without cutting may add a little.

What was measured:
Assay in all cases: uncleaved DNA left, log2 of reads against the no-enzyme library (log2 ratio); higher = less cleavage (more negative = more Rep cleavage of the k-mer); sequences stand for … in CTCGTCCG…ACCGGAGA
[1] = test system: T1, Rep nickase domain of Muscovy duck circovirus
T1 sequence (residues 1-111, tag not shown): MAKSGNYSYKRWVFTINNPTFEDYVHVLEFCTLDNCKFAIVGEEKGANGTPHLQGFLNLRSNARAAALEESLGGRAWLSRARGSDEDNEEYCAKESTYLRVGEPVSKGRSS
Protocol: (§1)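 A pool of 90-nt single-stranded DNAs with seven random bases just before the constant AC of the nick site (name = the seven bases) was cut by 3 µM recombinant His6-SUMO-tagged Rep nickase domain (300 nM DNA, 50 mM HEPES pH 8.0, 50 mM NaCl, 1 mM MnCl2, 1 h, 37 °C, three replicates). Uncut DNA was amplified and sequenced.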

[2] = test system: T2, Rep nickase domain of banana bunchy top virus
T2 sequence (residues 1-94, tag not shown): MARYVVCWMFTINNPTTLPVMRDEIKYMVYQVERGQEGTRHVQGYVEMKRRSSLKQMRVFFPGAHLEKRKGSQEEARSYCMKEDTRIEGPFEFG
Protocol: as §1

[3] = test system: T3, Rep nickase domain of cabbage leaf curl virus
T3 sequence (residues 1-116, tag not shown): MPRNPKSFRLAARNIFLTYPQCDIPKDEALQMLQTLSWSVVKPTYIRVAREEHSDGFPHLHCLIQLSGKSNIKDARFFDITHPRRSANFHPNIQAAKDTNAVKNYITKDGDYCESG
Protocol: as §1

[4] = test system: T4, Rep nickase domain of chickpea chlorotic dwarf virus
T4 sequence (residues 1-124, tag not shown): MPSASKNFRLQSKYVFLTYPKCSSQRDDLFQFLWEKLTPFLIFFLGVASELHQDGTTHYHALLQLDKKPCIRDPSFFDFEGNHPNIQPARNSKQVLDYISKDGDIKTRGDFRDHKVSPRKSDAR
Protocol: as §1

[5] = test system: T5, Rep nickase domain of faba bean necrotic yellows virus
T5 sequence (residues 1-98, tag not shown): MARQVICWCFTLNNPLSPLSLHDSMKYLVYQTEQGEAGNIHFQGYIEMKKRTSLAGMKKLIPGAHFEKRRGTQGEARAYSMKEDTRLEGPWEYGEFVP
Protocol: as §1

[6] = test system: T6, Rep nickase domain of maize striate mosaic virus
T6 sequence (residues 1-117, tag not shown): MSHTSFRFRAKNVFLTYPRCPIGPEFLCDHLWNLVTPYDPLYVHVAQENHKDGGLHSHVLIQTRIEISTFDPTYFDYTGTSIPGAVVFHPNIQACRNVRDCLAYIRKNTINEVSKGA
Protocol: as §1

[7] = test system: T7, Rep nickase domain of porcine circovirus 2
T7 sequence (residues 2-116, tag not shown): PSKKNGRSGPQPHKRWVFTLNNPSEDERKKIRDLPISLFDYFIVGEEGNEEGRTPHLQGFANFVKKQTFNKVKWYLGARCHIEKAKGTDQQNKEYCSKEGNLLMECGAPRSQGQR
Protocol: as §1

[8] = test system: T8, Rep nickase domain of tomato golden mosaic virus
T8 sequence (residues 1-124, tag not shown): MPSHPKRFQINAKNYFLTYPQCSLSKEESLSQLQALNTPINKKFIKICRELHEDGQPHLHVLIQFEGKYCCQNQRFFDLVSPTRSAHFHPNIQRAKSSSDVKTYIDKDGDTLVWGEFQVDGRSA
Protocol: as §1

[9] = test system: T9, Rep nickase domain of tomato yellow leaf curl virus
T9 sequence (residues 1-136, tag not shown): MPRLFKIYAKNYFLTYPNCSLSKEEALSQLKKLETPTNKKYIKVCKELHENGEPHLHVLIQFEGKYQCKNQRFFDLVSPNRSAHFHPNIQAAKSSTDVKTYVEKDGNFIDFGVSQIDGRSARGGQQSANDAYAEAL
Protocol: as §1

[10] = test system: T10, Rep nickase domain of wheat dwarf virus
T10 sequence (residues 1-137, tag not shown): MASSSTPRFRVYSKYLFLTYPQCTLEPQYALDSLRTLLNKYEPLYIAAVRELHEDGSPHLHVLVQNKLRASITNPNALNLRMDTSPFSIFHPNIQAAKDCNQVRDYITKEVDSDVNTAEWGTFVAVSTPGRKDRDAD
Protocol: as §1

Sequence | uncleaved DNA left (log2) [1] | uncleaved DNA left (log2) [2] | uncleaved DNA left (log2) [3] | uncleaved DNA left (log2) [4] | uncleaved DNA left (log2) [5] | uncleaved DNA left (log2) [6] | uncleaved DNA left (log2) [7] | uncleaved DNA left (log2) [8] | uncleaved DNA left (log2) [9] | uncleaved DNA left (log2) [10]
ATCACAG | -0.0119 | 0.0293 | -0.797 | -0.532 | 0.059 | -1.21 | 0.131 | 0.0779 | 0.00827 | 0.0135
TGCGACG | -0.105 | -0.135 | -0.199 | 0.481 | -0.151 | 1.43 | -0.107 | -0.115 | -0.253 | -0.0428
AAACTAT | -0.000231 | -0.0868 | -0.451 | -2.38 | 0.0316 | -0.391 | -0.189 | -0.00919 | -0.0132 | -0.13
GTTTGCA | 0.0418 | 0.0325 | 0.0516 | 0.348 | -0.0707 | 0.307 | 0.12 | 0.0138 | 0.0586 | -0.0631
ATTGTGC | 0.0119 | 0.00759 | -0.893 | -0.264 | -0.0289 | -1.05 | 0.11 | -0.0971 | 0.0798 | -0.131
CGTCCTC | 0.00521 | 0.0533 | 0.17 | 0.339 | -0.0117 | 0.289 | 0.0744 | 0.0651 | 0.0893 | 0.175
TGTTCGT | -0.0592 | 0.0116 | -0.226 | -0.698 | 0.0357 | -0.971 | -0.0937 | -0.0694 | 0.0746 | -0.00116
GCGCAGG | -0.318 | -0.212 | -0.201 | 0.38 | 0.00228 | 0.404 | -0.163 | -0.0894 | -0.183 | -0.165
GATAGCG | 0.033 | -0.043 | -0.718 | 0.684 | 0.00507 | -0.517 | -0.028 | -0.00775 | -0.0181 | -0.105
TCCTCGG | -0.125 | -0.156 | 0.442 | 1.37 | 0.00425 | 1.93 | 0.0558 | -0.0129 | -0.206 | -0.0207
GCATCAA | -0.00252 | 0.239 | 0.195 | 0.603 | 0.00734 | -0.0446 | 0.0285 | 0.122 | 0.146 | 0.142
CCCAAAG | 0.103 | 0.12 | -0.719 | -0.112 | 0.0733 | -1.07 | 0.228 | 0.0733 | 0.149 | -0.00669
TCGTCAG | 0.152 | 0.123 | 0.11 | 0.246 | 0.104 | -0.365 | 0.201 | 0.22 | 0.121 | -0.0302
TGGCACC | 0.0573 | -0.0214 | 0.426 | 0.913 | -0.0749 | 1.17 | 0.00981 | 0.0147 | 0.0758 | 0.167
TTACGAG | -0.00481 | 0.0452 | 0.456 | 0.252 | 0.00392 | 0.47 | 0.132 | -0.0602 | 0.0259 | 0.0616
AAATTTG | 0.0211 | 0.0269 | -0.509 | -0.7 | 0.0532 | -1.19 | 0.132 | 0.0564 | 0.0858 | 0.0785
TGGCTTC | -0.0331 | 0.0359 | 0.365 | 0.723 | -0.121 | 0.863 | 0.077 | -0.0552 | -0.0474 | 0.0767
AGGGCGC | -0.0646 | 0.0919 | -0.353 | -0.152 | -0.0102 | -0.445 | 0.2 | 0.0867 | -0.00173 | -0.0966
GGTATGC | 0.0223 | 0.0706 | 0.266 | 0.767 | -0.0479 | 0.447 | 0.113 | -0.0434 | 0.0139 | 0.149
TAAACCC | -0.344 | -0.133 | -2.65 | -3.01 | -0.0226 | -0.739 | -0.848 | -0.432 | -0.122 | -1.73
AAAAACA | 0.036 | 0.108 | -0.358 | -2.2 | 0.193 | -0.625 | 0.0224 | 0.173 | 0.0847 | 0.125
CCTAGCT | 0.107 | -0.143 | -0.196 | -0.429 | -0.0152 | -0.695 | 0.113 | 0.0297 | -0.0518 | -0.0329
TTCTTAA | -0.0461 | -0.00439 | 0.0788 | -0.079 | -0.0508 | 0.0505 | -0.11 | -0.0674 | -0.162 | -0.011
CTAGGGC | -0.0893 | 0.0582 | 0.0941 | 0.446 | 0.0396 | -0.139 | -0.0561 | -0.0639 | -0.00579 | 0.067
ATCTCTT | -2.11 | -1.09 | -0.456 | -2.47 | -0.36 | -0.264 | -3.25 | -0.145 | -0.166 | -0.224
ACGTGCT | -0.369 | -0.0678 | -0.595 | -0.987 | 0.013 | -0.981 | -2.98 | 0.0368 | 0.0916 | -0.12
TCAAGGT | 0.0183 | -0.0292 | 0.355 | 1.15 | -0.122 | 1.72 | 0.107 | 0.0482 | -0.069 | 0.0234
TGGTATG | -0.0554 | -0.0404 | -0.286 | -0.188 | -0.0935 | -0.493 | 0.0549 | -0.0797 | -0.102 | -0.126
AACCATA | -0.131 | -0.0961 | -0.317 | -2.58 | -0.0696 | -0.762 | -0.433 | -0.0497 | -0.0357 | -0.0133
GTACAGA | 0.0367 | 0.0712 | 0.42 | 0.928 | 0.0541 | 1.53 | 0.123 | 0.0989 | -0.0034 | 0.0607
